Some of the results follow. Sequences were assembled here from the parent chain. Values near 0.05 are background.
B1: TEV protease; numbered along this chain (parent)
chain: MGESLFKGPRDYNPISSSICHLTNESDGHTTSLYGIGFGPFIITNKHLFRRNNGTLVVQSLHGVFKVKDTTTLQQHLVDGRDMIIIRMPKDFPPFPQKLKFREPQREERICLVTTNFQTKSMSSMVSDTSCTFPSGDGIFWKHWIQTKDGQCGSPLVSTRDGFIVGIHSASNFTNTNNYFTSVPKNFMELLTNQEAQQWVSGWRLNADSVLWGGHKVFMVKPEEPFQPVKEATQL

Variants of: B1
Assay: raw area under fraction-flipped curve 0-4 h after induction (AUC4h, not background-subtracted), DNA-recorder readout of cleavage of the substrate (dimensionless); higher = more cleavage of the substrate by the protease variant
Conditions: temperature: 34 °C; time window: 0-4 h after rhamnose induction
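Also: Bxb1 expression induced with 0.2% (w/v) L-rhamnose at OD600 near 0.5, cultures sampled hourly, flipped fraction per protease–substrate barcode pair counted by paired-end Illumina sequencing.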

Variant | area with substrate ENLYDQS | area with substrate ENLYEQS | area with substrate ENLYGQS | area with substrate ENLYHQS | area with substrate ENLYIQS | area with substrate ENLYKQS | area with substrate ENLYLQS | area with substrate ENLYMQS | area with substrate ENLYNQS | area with substrate ENLYPQS | area with substrate ENLYQQS | area with substrate ENLYRQS | area with substrate ENLYSQS | area with substrate ENLYTQS | area with substrate ENLYVQS | area with substrate ENLYWQS | area with substrate ENLYYQS
K221C | 0.0536 | 0.0788 | 0.0665 | 0.029 | 0.0947 | 0.0628 | 0.0725 | 0.0774 | 0.06 | 0.0619 | 0.0613 | 0.0566 | 0.0644 | 0.071 | 0.104 | 0.0748 | 0.0532
P222R | 0.0457 | 0.051 | 0.0568 | 0.0579 | 0.103 |  | 0.0699 | 0.0693 | 0.0638 |  | 0.0796 |  | 0.0602 |  | 0.0956 | 0.0599 | 0.0706
E223G | 0.0461 | 0.0597 |  |  |  |  |  |  |  |  |  |  |  |  |  |  | 0.0845
Q227G | 0.0277 | 0.0618 |  | 0.0704 |  |  |  | 0.067 | 0.0582 |  | 0.0567 | 0.01 |  | 0.0839 |  |  | 
P228C | 0.0349 | 0.0613 | 0.066 | 0.0753 | 0.105 | 0.0337 | 0.0878 | 0.0865 | 0.0617 | 0.0635 | 0.0755 | 0.0562 | 0.0724 |  | 0.12 | 0.0768 | 0.075
E231R | 0.0594 | 0.0616 | 0.0784 | 0.0708 | 0.162 | 0.0708 | 0.0894 | 0.0721 | 0.0741 | 0.0838 |  |  | 0.0995 | 0.078 |  | 0.0889 | 
Q234D | 0.0599 | 0.0675 | 0.0804 | 0.0724 | 0.137 | 0.0409 | 0.0721 |  | 0.0792 | 0.072 |  | 0.0525 | 0.0638 |  | 0.0859 | 0.0825 | 0.0838
L235I | 0.0526 | 0.0557 |  | 0.0824 | 0.0797 | 0.0377 | 0.0723 | 0.0887 |  | 0.103 |  |  |  | 0.0963 | 0.0918 | 0.0526 | 
L235N | 0.0686 | 0.0748 | 0.0578 |  | 0.117 | 0.0765 |  |  | 0.0658 | 0.0606 | 0.0628 | 0.0673 |  | 0.087 | 0.102 |  | 0.0641
F6K |  | 0.0782 |  |  |  | 0.0734 |  | 0.0682 |  |  |  |  |  | 0.0881 |  |  | 
Y34K |  | 0.048 | 0.0591 | 0.0657 |  |  |  |  | 0.044 | 0.0054 |  |  |  |  | 0.105 |  | 
G35C |  | 0.0568 |  |  |  |  |  |  |  |  |  | 0.0556 |  | 0.0486 |  | 0.0642 | 
G35N |  | 0.0274 |  |  |  |  |  |  |  | 0.0427 |  |  |  |  |  | 0.0387 | 0.0319
G35Q |  | 0.0669 |  | 0.0496 | 0.0568 |  |  | 0.0598 | 0.0474 |  |  |  |  |  |  | 0.0455 | 
R50F |  | 0.0544 | 0.0632 | 0.0661 | 0.123 | 0.0271 |  |  | 0.0631 | 0.103 |  |  | 0.0816 |  | 0.161 |  | 0.0966
V57D |  | 0.051 | 0.0535 | 0.0611 | 0.12 | 0.0611 |  | 0.105 | 0.0671 | 0.0619 | 0.0675 | 0.0554 | 0.0773 | 0.0605 |  |  | 0.0625
Q59A |  | 0.0705 |  | 0.068 |  | 0.0605 |  |  | 0.0786 | 0.0729 |  | 0.0686 | 0.0843 |  |  | 0.0907 | 
Q59T |  | 0.0697 |  | 0.0761 | 0.12 | 0.0555 | 0.0711 |  |  | 0.0707 | 0.0554 | 0.0693 | 0.0619 | 0.0772 |  | 0.082 | 

Variant | area with substrate ENLYDQS | area with substrate ENLYEQS | area with substrate ENLYGQS | area with substrate ENLYHQS | area with substrate ENLYIQS | area with substrate ENLYKQS | area with substrate ENLYLQS | area with substrate ENLYMQS | area with substrate ENLYNQS | area with substrate ENLYPQS | area with substrate ENLYQQS | area with substrate ENLYRQS | area with substrate ENLYSQS | area with substrate ENLYTQS | area with substrate ENLYVQS | area with substrate ENLYWQS | area with substrate ENLYYQS
K66T |  | 0.0665 | 0.0672 | 0.0482 |  |  |  |  | 0.0666 |  |  | 0.0435 |  |  | 0.123 | 0.0847 | 
T71H |  | 0.0761 | 0.0526 |  | 0.166 |  |  |  |  |  |  |  | 0.113 |  |  | 0.0738 | 
P93N |  | 0.0477 |  | 0.0712 |  | 0.0516 |  |  | 0.0662 |  |  |  |  |  |  |  | 
P93Q |  | 0.0608 |  | 0.066 | 0.159 |  | 0.0789 |  | 0.0747 |  |  |  |  |  |  | 0.0746 | 
K100A |  | 0.0768 | 0.063 | 0.0657 |  | 0.0556 |  | 0.0975 |  |  |  |  |  |  |  | 0.0827 | 0.0618
E107F |  | 0.0684 |  | 0.0676 |  | 0.0537 | 0.0875 | 0.0694 | 0.0676 | 0.0777 |  | 0.0748 |  |  | 0.0877 |  | 0.0639
I110P |  | 0.0595 |  | 0.0615 | 0.0492 | 0.0565 |  | 0.0445 |  |  |  |  |  | 0.0689 |  | 0.058 | 0.0557
C111F |  | 0.0706 | 0.0638 | 0.0795 | 0.12 | 0.0492 |  | 0.0811 | 0.063 | 0.0697 | 0.0663 |  | 0.0736 |  | 0.125 | 0.0807 | 0.0685
S127V |  | 0.0625 | 0.0613 | 0.0843 | 0.144 | 0.0294 | 0.0865 | 0.0852 |  | 0.064 | 0.059 |  |  |  |  | 0.0959 | 
C131R |  | 0.0607 |  | 0.079 | 0.0987 |  | 0.082 | 0.0778 |  |  |  |  |  |  | 0.1 | 0.0716 | 
T132P |  | 0.0596 | 0.0579 | 0.0505 | 0.0603 | 0.055 |  | 0.0665 | 0.0637 | 0.0464 | 0.0708 | 0.0668 |  |  |  | 0.0696 | 0.0496
G138D |  | 0.0616 | 0.0625 | 0.0633 | 0.0963 | 0.0139 |  |  |  | 0.0667 | 0.0667 |  |  |  | 0.111 | 0.0546 | 
H143I |  | 0.0454 | 0.0277 | 0.0649 |  | 0.0553 |  |  |  |  |  | 0.0622 |  |  |  |  | 0.0646
K148D |  | 0.0542 | 0.0661 | 0.0542 | 0.0669 | 0.0738 | 0.0691 |  | 0.04 | 0.0678 | 0.0638 | 0.0581 |  |  | 0.0866 |  | 
K148S |  | 0.0645 | 0.0651 | 0.0608 | 0.131 |  |  |  |  | 0.0647 |  | 0.0652 | 0.0839 |  | 0.0965 |  | 0.0825
K148Y |  | 0.0559 | 0.0648 | 0.0713 | 0.109 | 0.0702 |  | 0.0602 | 0.0709 | 0.0643 |  | 0.0718 |  | 0.0712 | 0.0529 | 0.0804 | 0.0604
D149H |  | 0.0537 | 0.0443 | 0.0575 | 0.0784 | 0.0542 |  | 0.0509 |  | 0.067 |  | 0.0575 | 0.0596 |  | 0.0735 | 0.0494 | 
G153E |  | 0.0464 | 0.0573 | 0.045 | 0.0457 |  |  |  | 0.046 | 0.0512 |  |  | 0.0582 |  | 0.034 |  | 
